Results published in paper PMC9068801.
These are yes or no findings as the source states them, for the method shown. For some assays here: Binding seen in cells or lysates may run through a third protein. Some binding calls cover weakened binding; strength is not graded here. For some assays here: Tags and fused reporters may be left off the sequences shown.

Amino acid sequences for entries named in this document (tags omitted).
UniProt Q39026: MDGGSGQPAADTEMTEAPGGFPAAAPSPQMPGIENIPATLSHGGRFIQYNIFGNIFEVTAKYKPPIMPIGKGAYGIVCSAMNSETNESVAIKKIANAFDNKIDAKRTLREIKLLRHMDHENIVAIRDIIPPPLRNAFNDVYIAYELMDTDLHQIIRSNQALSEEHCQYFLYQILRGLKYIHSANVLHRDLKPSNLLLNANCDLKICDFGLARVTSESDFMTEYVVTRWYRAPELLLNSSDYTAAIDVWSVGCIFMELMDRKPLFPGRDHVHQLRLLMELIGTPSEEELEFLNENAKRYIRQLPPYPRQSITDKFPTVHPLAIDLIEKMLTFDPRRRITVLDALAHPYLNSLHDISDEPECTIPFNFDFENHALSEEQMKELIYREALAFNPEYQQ
UniProt Q9LR78: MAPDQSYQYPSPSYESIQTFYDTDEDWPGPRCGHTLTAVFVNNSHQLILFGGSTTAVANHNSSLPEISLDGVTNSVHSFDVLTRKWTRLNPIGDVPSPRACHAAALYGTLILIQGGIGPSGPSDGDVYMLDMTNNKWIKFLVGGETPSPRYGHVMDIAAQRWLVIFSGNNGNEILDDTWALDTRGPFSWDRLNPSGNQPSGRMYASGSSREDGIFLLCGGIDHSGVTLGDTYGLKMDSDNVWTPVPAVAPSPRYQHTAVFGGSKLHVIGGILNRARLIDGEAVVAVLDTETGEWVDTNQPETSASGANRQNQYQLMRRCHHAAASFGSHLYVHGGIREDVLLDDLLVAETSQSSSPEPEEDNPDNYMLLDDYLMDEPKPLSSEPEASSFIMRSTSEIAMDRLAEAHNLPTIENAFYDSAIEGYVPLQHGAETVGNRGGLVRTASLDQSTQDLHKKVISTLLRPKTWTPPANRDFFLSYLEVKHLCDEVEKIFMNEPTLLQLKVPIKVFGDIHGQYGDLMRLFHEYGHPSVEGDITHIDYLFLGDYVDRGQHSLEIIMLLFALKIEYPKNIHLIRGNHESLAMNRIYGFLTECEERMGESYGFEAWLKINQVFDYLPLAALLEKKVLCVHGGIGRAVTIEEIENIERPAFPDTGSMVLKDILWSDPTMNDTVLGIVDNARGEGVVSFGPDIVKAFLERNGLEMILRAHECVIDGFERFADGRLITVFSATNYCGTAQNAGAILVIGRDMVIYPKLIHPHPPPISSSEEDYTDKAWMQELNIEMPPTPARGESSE

How the values were obtained:
[1] = biological target: MPK6-YFP (Arabidopsis thaliana) (UniProt Q39026); assay: co-IP; YFP or MPK6-YFP co-expressed with BSL2-FLAG or BSU1-FLAG in N. benthamiana leaves; total protein extract on GFP-Trap agarose, 4 °C, 3 h; washed three times; detected by anti-FLAG
[2] = biological target: BSU1 (bri1 Suppressor 1) phosphatase, Gal4 DNA-binding domain fusion (Arabidopsis thaliana) (UniProt Q9LR78); assay: two-hybrid; Gal4 system in S. cerevisiae AH109; BSL proteins as bait in pGBKT7 (BD-), partners as prey in pGADT7 (AD-); tested on SD/-Leu/-Trp/-His with 1 mM 3-AT; 3 days at 30 °C
[3] = biological target: T1, BSL1 (BSU1-like 1 Ser/Thr protein phosphatase), Gal4 DNA-binding domain fusion (Arabidopsis thaliana) (UniProt Q8L7U5); assay: as above
T1 sequence: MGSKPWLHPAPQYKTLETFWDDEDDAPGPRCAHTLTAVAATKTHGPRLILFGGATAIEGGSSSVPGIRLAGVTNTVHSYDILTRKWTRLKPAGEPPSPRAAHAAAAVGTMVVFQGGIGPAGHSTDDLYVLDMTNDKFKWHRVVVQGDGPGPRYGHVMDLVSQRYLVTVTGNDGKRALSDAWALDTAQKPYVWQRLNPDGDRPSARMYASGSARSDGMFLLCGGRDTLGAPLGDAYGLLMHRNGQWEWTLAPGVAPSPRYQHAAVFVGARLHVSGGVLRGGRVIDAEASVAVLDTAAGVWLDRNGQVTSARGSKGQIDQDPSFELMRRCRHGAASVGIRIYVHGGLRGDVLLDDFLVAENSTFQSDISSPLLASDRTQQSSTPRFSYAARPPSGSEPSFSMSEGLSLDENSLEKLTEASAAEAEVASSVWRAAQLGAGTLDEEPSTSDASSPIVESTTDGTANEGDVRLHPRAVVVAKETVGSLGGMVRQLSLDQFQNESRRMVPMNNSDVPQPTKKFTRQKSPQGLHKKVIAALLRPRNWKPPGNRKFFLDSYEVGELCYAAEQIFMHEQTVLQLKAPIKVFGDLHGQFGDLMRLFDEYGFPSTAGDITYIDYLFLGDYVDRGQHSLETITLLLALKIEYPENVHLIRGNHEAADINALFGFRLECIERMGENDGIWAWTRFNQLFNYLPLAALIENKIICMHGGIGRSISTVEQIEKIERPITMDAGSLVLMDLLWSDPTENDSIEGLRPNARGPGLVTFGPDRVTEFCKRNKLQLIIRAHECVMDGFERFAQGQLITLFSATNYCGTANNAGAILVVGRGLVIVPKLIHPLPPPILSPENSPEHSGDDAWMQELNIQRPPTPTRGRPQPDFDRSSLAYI

[4] = biological target: T2, BSL3 (BSU1-like 3 Ser/Thr protein phosphatase), Gal4 DNA-binding domain fusion (Arabidopsis thaliana) (UniProt Q9SHS7); assay: as above
T2 sequence: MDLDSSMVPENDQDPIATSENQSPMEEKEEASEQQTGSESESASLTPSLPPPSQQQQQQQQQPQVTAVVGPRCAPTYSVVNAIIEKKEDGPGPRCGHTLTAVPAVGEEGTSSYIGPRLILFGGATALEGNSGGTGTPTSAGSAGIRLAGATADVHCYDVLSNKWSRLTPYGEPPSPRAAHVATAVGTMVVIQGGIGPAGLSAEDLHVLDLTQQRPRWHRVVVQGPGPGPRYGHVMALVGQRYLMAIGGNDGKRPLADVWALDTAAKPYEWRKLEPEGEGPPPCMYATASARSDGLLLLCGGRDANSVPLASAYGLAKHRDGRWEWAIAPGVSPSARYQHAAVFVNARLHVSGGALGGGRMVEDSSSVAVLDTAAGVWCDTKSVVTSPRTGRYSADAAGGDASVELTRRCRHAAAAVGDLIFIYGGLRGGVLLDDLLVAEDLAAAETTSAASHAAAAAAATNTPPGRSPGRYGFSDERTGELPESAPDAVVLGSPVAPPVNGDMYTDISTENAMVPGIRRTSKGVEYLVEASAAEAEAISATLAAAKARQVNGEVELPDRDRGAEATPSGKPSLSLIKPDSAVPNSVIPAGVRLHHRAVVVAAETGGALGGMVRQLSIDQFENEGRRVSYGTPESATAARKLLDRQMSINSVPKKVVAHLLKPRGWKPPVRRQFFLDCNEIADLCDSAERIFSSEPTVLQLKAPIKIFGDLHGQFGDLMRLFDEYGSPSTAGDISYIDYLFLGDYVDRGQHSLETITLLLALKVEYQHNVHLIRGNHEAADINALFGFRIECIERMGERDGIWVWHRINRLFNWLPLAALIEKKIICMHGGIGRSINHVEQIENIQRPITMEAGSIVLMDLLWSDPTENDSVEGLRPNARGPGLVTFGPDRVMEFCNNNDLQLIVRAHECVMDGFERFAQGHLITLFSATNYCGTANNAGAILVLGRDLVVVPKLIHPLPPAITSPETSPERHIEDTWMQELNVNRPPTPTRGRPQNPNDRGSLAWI

[5] = biological target: T3, BSL2 (BSU1-like 2 Ser/Thr protein phosphatase), Gal4 DNA-binding domain fusion (Arabidopsis thaliana) (UniProt Q9SJF0); assay: as above
T3 sequence: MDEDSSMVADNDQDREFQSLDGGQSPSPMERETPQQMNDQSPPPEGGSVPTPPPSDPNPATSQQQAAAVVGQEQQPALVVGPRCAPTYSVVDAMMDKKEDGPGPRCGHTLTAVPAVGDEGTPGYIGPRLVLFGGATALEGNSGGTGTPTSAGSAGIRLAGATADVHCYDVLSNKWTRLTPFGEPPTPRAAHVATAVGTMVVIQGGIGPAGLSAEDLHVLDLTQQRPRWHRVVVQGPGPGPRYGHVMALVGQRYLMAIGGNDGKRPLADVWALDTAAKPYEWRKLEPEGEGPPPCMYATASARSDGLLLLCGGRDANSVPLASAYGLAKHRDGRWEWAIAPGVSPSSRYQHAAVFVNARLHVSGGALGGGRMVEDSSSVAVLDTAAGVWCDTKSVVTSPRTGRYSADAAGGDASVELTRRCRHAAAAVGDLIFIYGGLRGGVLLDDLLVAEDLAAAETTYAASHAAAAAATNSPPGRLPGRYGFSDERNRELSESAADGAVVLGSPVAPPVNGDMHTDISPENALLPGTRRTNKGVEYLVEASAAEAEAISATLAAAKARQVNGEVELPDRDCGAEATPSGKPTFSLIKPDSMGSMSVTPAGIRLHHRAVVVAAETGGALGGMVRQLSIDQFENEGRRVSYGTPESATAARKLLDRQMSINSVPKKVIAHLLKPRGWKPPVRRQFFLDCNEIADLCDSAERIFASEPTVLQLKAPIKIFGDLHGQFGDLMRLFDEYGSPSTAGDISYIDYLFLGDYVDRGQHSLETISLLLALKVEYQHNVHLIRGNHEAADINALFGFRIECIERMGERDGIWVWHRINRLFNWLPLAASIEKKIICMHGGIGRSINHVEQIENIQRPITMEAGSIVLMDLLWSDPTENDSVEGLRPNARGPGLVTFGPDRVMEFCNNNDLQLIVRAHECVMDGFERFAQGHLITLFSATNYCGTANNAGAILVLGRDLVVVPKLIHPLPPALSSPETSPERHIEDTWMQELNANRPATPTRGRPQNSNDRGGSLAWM

[6] = biological target: T4, SPCH-cYFP (Arabidopsis thaliana) (UniProt Q700C7); assay: split reporter; BiFC with nYFP and cYFP fusions transiently co-expressed in N. benthamiana leaf epidermal cells; confocal microscopy 3-4 days after infiltration
T4 sequence: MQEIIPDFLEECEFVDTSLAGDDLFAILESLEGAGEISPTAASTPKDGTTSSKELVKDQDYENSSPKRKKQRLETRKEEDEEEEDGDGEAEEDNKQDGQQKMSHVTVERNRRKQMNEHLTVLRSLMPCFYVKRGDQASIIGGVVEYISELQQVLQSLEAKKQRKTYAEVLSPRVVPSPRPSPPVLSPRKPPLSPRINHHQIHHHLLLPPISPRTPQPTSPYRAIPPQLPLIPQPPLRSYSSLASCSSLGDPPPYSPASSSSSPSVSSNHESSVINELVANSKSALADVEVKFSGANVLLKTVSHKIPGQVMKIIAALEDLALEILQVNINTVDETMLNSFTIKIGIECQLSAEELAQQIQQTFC

[7] = biological target: cYFP-tagged MPK6 (Arabidopsis thaliana) (UniProt Q39026); assay: as above
[8] = biological target: T5, SCRM-cYFP (Arabidopsis thaliana) (UniProt Q9LSE2); assay: as above
T5 sequence: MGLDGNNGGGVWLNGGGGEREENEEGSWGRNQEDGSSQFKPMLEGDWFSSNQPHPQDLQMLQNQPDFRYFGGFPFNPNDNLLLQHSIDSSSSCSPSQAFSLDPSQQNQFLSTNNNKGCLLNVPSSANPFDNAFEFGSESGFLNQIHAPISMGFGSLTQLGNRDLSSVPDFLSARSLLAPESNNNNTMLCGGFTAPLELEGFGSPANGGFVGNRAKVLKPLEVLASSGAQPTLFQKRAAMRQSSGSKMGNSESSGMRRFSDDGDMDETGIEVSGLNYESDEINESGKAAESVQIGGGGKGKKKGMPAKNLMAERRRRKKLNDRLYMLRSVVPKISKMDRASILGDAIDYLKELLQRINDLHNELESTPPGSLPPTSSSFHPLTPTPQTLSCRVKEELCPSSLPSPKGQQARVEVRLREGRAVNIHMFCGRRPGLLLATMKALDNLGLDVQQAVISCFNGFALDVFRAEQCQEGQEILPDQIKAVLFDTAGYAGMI

BSU1-FLAG (from UniProt Q9LR78 1-793) (enzyme)
binding [1]: binds

MAPK 6 (MPK6), Gal4 activation domain fusion (from UniProt Q39026 1-395) (enzyme)
binding [2]: binds
binding [3]: no binding
binding [4]: binds
binding [5]: binds

nYFP-tagged BSU1 (from UniProt Q9LR78 1-793) (enzyme)
binding [6]: no binding
binding [7]: binds
binding [8]: no binding
